# The BET-seq Pho4 binding data (Le et al. 2018)
# Some of the results follow. Values were computed here from the reads of four pooled replicates and scatter widely.
# Target: T1, Pho4 (S. cerevisiae) (UniProt P07270)
# T1 sequence: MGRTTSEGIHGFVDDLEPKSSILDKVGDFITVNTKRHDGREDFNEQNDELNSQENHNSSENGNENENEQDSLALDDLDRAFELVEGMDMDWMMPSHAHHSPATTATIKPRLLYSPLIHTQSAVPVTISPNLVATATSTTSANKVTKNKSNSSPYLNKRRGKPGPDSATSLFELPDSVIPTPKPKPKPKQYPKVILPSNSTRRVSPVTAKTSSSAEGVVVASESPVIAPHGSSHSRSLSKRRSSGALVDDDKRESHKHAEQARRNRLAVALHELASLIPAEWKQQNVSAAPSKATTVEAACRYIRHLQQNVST
# Assay: relative binding free energy (BET-seq); higher = weaker binding
# Conditions: reference: library average
row,Sequence,relative binding free energy [kcal/mol]
1,GATCGCACGTGGAGTG,-0.02
2,ATTAGCACGTGGCGTA,-0.26
3,GAGGGCACGTGTGTGC,-0.03
4,GGCCTCACGTGGGTGT,0.06
5,CTGGTCACGTGTCGGA,0.16
6,AGGTGCACGTGGATAT,-0.08
7,CTGTACACGTGGGGGT,-0.09
8,TATGGCACGTGTATTA,-0.03
9,TTTAACACGTGTCTTA,-0.03
10,CACATCACGTGGGTGT,0.01
11,CATGTCACGTGTTAGA,0.2
12,GTTCACACGTGAGGGA,0.27
13,TCGGTCACGTGTAGTG,0.12
14,ATCCGCACGTGTGGTT,0.01
15,GGTAGCACGTGAATAT,0.16
16,GGTGTCACGTGGATAG,0.02
17,CGTGGCACGTGTCTGG,0.03
18,TAAGGCACGTGGCTCG,-0.09
19,TTGGTCACGTGGCTTC,0.05
20,TGTTTCACGTGGTTCC,0.29
21,GATGGCACGTGTTTAG,-0.02
22,AAATGCACGTGGGTGG,-0.23
23,GGTAACACGTGCGGGG,0.05
24,GATAGCACGTGTTGCT,0.01
25,TATTACACGTGAAGGG,0.46

row,Sequence,relative binding free energy [kcal/mol]
1,ATGTACACGTGAAATG,0.16
2,GGAGTCACGTGCCGGG,-0.11
3,TGGCTCACGTGTATAG,0.17
4,CATGGCACGTGTTGCT,-0.03
5,TAAATCACGTGTTAGG,0.14
6,TGGGGCACGTGTACCG,-0.17
7,ATACACACGTGGGTGG,-0.13
8,AGCTGCACGTGATGGG,0.11
9,TGGAGCACGTGCGAGA,-0.06
10,CCTGTCACGTGGTGAG,-0.01
11,GTTGCCACGTGGCGGT,-0.04
12,GGGTTCACGTGTCCTT,0.48
13,CGTGACACGTGATTGG,0.12
14,TTGTTCACGTGGTATA,0.27
15,CTTGGCACGTGGTTTT,-0.24
16,TGTCTCACGTGGGAGT,0.08
17,TGTGACACGTGAGTGG,0.19
18,GTAAGCACGTGTAAAG,0.12
19,CGCGTCACGTGTTGTG,0.09
20,CTTAGCACGTGTGTTG,-0.14
21,GTTTGCACGTGGTGTG,0.03
22,TATTTCACGTGCATTG,0.25
23,AGACGCACGTGGGGGC,-0.23
24,TGCGGCACGTGGTGCA,-0.14
25,AGGGACACGTGGGGCT,-0.02

row,Sequence,relative binding free energy [kcal/mol]
1,GTCGACACGTGGGGGC,-0.03
2,TTTGGCACGTGTATTC,-0.03
3,TTCGACACGTGGGTTG,-0.2
4,GGTCGCACGTGTCGGT,0
5,CAGATCACGTGGTTTT,0.18
6,TTTCGCACGTGGGAAA,0.08
7,GCGAGCACGTGTTGGA,0.11
8,TAGGACACGTGAAGTG,0.14
9,ACTGTCACGTGTGCGT,0.08
10,ATGTTCACGTGTAAAG,0.21
11,TTCAACACGTGGTAGG,-0.14
12,GGGATCACGTGGGCGA,0
13,GCTGGCACGTGGGTTG,-0.17
14,GATATCACGTGTTGAT,0.23
15,GGAAACACGTGGAGGT,-0.01
16,GGGTACACGTGGAAGG,0.18
17,TGTTTCACGTGGCTGC,0.25
18,GTAGTCACGTGTTTGT,0.09
19,GCTTGCACGTGTTAGG,0.05
20,TGATTCACGTGGTTGC,0.24
21,ATGTTCACGTGAATAA,0.38
22,ACGTTCACGTGGGTCG,0.07
23,GATGCCACGTGTGGGT,-0.01
